In PubChem BioAssay (NCATS):
The shares of active, inactive and inconclusive entries below differ from those in the screen. No potency is given beside an inconclusive call; the fits are too rough. Calls of active or inactive are those of the source. Calls follow the shape of the dose curve; as a rule, active = well fitted curve in either direction with a large enough effect (not every such curve was filed as active); inconclusive = small, poorly fitted or top-dose-only effect, or another doubt; inactive = flat fitted curve, though single readings scatter.

Target: Mitogen-activated protein kinase 10 (Mus musculus) (UniProt Q61831)
Test: JNK3 AlphaScreen Assay (AID 530);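 also: kinase came from lysate of stimulated human HepG2 cells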
Details: JNK3 lysate, c-Jun phosphorylation; activity change, negative = inhibition: at 57.1 µM (top of the series)
In short: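 Phosphorylation of biotinylated GST-cJun(1-79) at Ser73 is measured by AlphaScreen proximity luminescence. Enzyme is JNK3 in HepG2 lysates activated with interleukin-1beta and tumor necrosis factor alpha; ATP is 10 uM final.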
% is scaled to controls: 0 for no effect and ±100 for the full control effect; potency is read from the fitted curve at half-maximal effect; tags tell the direction and shape of the fitted curve.

## Cc1nc(N)nc2ccccc12
  activity change, negative = inhibition: inactive: -0.927% [at 11.4 µM]

## Cc1nc(NC2CCCCC2)c2nc(-c3ccccc3)n(CC3CCN(C)CC3)c2n1
  Potency: inconclusive [inhibitor, single point]

## CCC/C=C(\CCC)C(NS(=O)(=O)c1ccc(Cl)cc1)c1ccccc1 (stereo not given)
  Potency: inconclusive [activator, partial curve]

## CCN(CC)CCCC(C)n1c(-c2ccccc2)nc2c(NCCOC)nc(C)nc21 (stereo not given)
  Potency: inactive

## CC(C)C[C@@H](CC(=O)N[C@@H](CCC(=O)O)CC(=O)O)NC(=O)[C@@H]1CCCC[C@H]1NC(=O)C[C@@H](NC(=O)C[C@H](Cc1c[nH]c2ccccc12)NC(=O)[C@@H]1CCCC[C@H]1N)C(C)C
  Potency: inconclusive [inhibitor, partial curve, poor fit]

## N#Cc1cccc(-c2ccc3ncnc(NC4CCNCC4)c3c2)c1
  Potency: inactive

## COC(=O)C1(Cc2ccccc2)C=C2C(=C(C(C)C)C(=O)C2C)CN1 (stereo not given)
  Potency: inactive

## CCCCCCN(C(=O)CCCCCN1C(=O)NC(c2ccc(-c3ccccc3)cc2)C(C(=O)OCc2ccccc2)=C1C)C(C(=O)NCCCC)c1ccc(-c2ccccc2)cc1 (stereo not given)
  Potency: inactive

## O=C(O)c1ccc([N+](=O)[O-])c(P(=O)(O)O)c1
  activity change, negative = inhibition: inactive: 1.86% [at 11.4 µM]

## CC(C)CN1CC[C@@]2(CCCN(C(=O)c3cccc(F)c3)C2)C1
  Potency: inactive

## CCC/C=C(\CCC)C(NC(=O)OCC(C)C)c1ccc(C(=O)OC)cc1 (stereo not given)
  Potency: inconclusive [activator, partial curve]

## CC1=C(C(=O)OCc2ccccc2)C(C2CC2)NC(=O)N1CCCCCC(=O)O (stereo not given)
  Potency: inconclusive [activator, single point]

## CC(=O)N1[C@H](Cc2ccccc2)C=C[C@]1(C)C(=O)NCc1cc(F)cc(C(F)(F)F)c1
  Potency: inactive

## CC(=O)c1c(O)c(C)c(O)c2c1OC1=CC(=O)[C@H](C(C)=O)C(=O)[C@]12C
  Potency: inconclusive [activator, full curve, poor fit]

## CC(=O)N[C@@H](c1ccccc1)[C@]1(C)C[C@H]1[C@@H](C)C(=O)Nc1ccc2ccccc2c1
  Potency: inactive

## CS(=O)(=O)N1CCC2(CC1)CN(Cc1nccs1)C2
  Potency: inconclusive [inhibitor, single point]

## C=C(Br)CN(C)CC(=C)Br
  activity change, negative = inhibition: inactive: 3.52% [at 11.4 µM]

## CC(=O)Oc1cc(OC(C)=O)c2c(=O)cc(-c3ccc(OC(C)=O)c(OC(C)=O)c3)oc2c1
  Potency: active: 10 µM

## Cc1cc(=O)oc2c(OS(C)(=O)=O)c(OS(C)(=O)=O)ccc12
  activity change, negative = inhibition: inactive: 1.48% [at 11.4 µM]

## O=CNc1ncn[nH]1
  activity change, negative = inhibition: inactive: 2.29% [at 11.4 µM]

## CCC/C=C(\CCC)C(NS(=O)(=O)c1cccs1)c1ccc(C(=O)OC)cc1 (stereo not given)
  Potency: inconclusive [activator, partial curve]

## C[C@@H](CCC[C@@H]1SC[C@H]2NC(=O)N[C@H]12)C(=O)O
  Potency: active: 0.0316 µM

## N#C[C@@H](N=Nc1ccccc1C(=O)O)C(N)=O
  activity change, negative = inhibition: inactive: -0.499% [at 11.4 µM]

## NCCC[C@@H](CC(=O)N[C@@H]1CCNC[C@H]1C(=O)N[C@H](CC(=O)N[C@@H](CCC(=O)O)CC(=O)O)Cc1c[nH]c2ccccc12)NC(=O)C[C@H](Cc1c[nH]c2ccccc12)NC(=O)[C@@H]1CNCC[C@H]1N
  activity change, negative = inhibition: inconclusive: 28.5%

## COC(=O)[C@@]1(Cc2ccc(OC)cc2)[C@H]2c3cc(C(=O)N4CCCC4)n(CCSCCO)c3C[C@H]2CN1C(=O)c1ccccc1
  Potency: inactive
